Laboratory results published in PubChem BioAssay AID886 (National Center for Advancing Translational Sciences (NCATS), 2007).
In all, about 73,000 compounds went through this assay and about 2,500 (3.4%) were called active. This list was built around the results that the source calls inconclusive (neither active nor inactive); the mix of calls is not that of the screen. Calls come from the whole dose curve; as a rule, active = well fitted inhibition curve with a large enough effect; inconclusive = small, poorly fitted or top-dose-only effect; inactive = no such curve, though single readings can be large or run the other way. Where the call is inconclusive, the potency comes from a doubtful curve fit.

Molecular target: 3-hydroxyacyl-CoA dehydrogenase type-2 (Homo sapiens) (UniProt Q99714)
Test: qHTS Assay for Inhibitors of HADH2 (Hydroxyacyl-Coenzyme A Dehydrogenase, Type II); note: nearly all actives have a fitted effect of over 60% in size
Details: recombinant HADH2, NADH fluorescence, beta-hydroxybutyryl-CoA; activity change, negative = inhibition: at 57.1 µM (top of the series)
Procedure, shortened: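 His-tagged recombinant enzyme from E. coli, 20 nM, preincubated 15 min RT with compound; reaction started with 1 mM NAD+ and 90 uM beta-hydroxybutyryl-CoA in 100 mM Tris-HCl pH 9.0. NADH fluorescence (ex 360/em 450) read over 4 min; last-minus-first difference.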
% is set by controls: 0 for no effect and ±100 for the full control effect; potency is the fitted concentration of half-maximal effect; tags give direction and shape of the fitted curve.

Sequence of UniProt Q99714 (Q99714 whole entry, looked up): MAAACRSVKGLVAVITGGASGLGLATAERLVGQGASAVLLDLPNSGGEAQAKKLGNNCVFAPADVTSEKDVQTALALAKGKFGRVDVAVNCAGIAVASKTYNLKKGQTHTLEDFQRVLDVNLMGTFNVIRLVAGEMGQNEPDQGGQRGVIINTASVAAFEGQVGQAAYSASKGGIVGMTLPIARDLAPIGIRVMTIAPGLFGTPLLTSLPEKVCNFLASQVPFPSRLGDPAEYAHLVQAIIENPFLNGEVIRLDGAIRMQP
Sequence of UniProt Q99714 (Q99714 whole entry, looked up): as above

SMILES	Potency	activity change, negative = inhibition
CN1CCc2c(sc3c2C(=O)NC(/C=C/c2ccco2)N3)C1 (stereo unspecified)	inconclusive: 39.8 µM [inhibitor, single point]	–
O=C1CCCC2=C1C1(O)C(=O)c3ccccc3C1(O)O2 (stereo unspecified)	–	inactive: 1.57% [at 11.4 µM]
Cc1nnc(SCC(=O)N2c3ccccc3Sc3ccccc32)n1N	inactive	–
COc1cc(CCC(=O)N2CCN(S(=O)(=O)c3ccc(C)c(C)c3)CC2)cc(OC)c1OC	inactive	–
CCc1ccc(CCC(=O)O)nc1	–	inactive: 3.52% [at 11.4 µM]
CSc1nc2nc(-c3ccccc3)cc(C(F)(F)F)n2n1	inconclusive: 31.6 µM [inhibitor, single point]	–
NC(=O)C1CCCN(C(=O)Nc2cccc3ccccc23)C1 (stereo unspecified)	inconclusive: 3.16 µM [inhibitor, partial curve]	–
C1CCC(OCCN2CCN(CCOC3CCCCC3)CC2)CC1	inactive	–
COc1cccc(NC(=O)CSc2nc3c(c(-c4ccco4)c2C#N)CCCC3)c1	inactive	–
Cc1c(C(=O)NCC2CCCO2)oc2ccc3c(c12)C(=O)CC(C)(C)O3 (stereo unspecified)	active: 20 µM	–
COc1ccc(Oc2c(C)oc3c(CN(C)C)c(O)ccc3c2=O)cc1	inconclusive: 39.8 µM [inhibitor, single point]	–
O=C(C1=C(O)C(=O)N(c2ncccn2)C1c1cccs1)c1ccco1 (stereo unspecified)	inconclusive: 3.98 µM [inhibitor, partial curve]	–
CCOC(=O)c1cn(CC)c2cc(N3CCSCC3)c(F)cc2c1=O	inconclusive: 31.6 µM [inhibitor, single point]	–
CC[C@H]1CC[C@H]2[C@@H]3CC=C4C[C@H](OC(C)=O)[C@@H](N)C[C@@]4(C)[C@H]3CC[C@@]12C	–	inactive: 1.99% [at 11.4 µM]
NC(=O)c1ccccc1O	active: 25.1 µM	–
COc1ccc2[nH]cc(CCNc3nc(-c4c(C)noc4C)nc4ccccc34)c2c1	inactive	–
O=C(OCC(=O)N1CCN(C(=O)c2ccco2)CC1)c1cc(-c2ccc(F)cc2)nc2ccccc12	inconclusive: 12.6 µM [inhibitor, single point]	–
CCCCN1CCC(n2c(=O)[nH]c3ccccc32)CC1	inactive	–
CCn1c(-c2ccsc2)nc2c1c(=O)[nH]c(=O)n2Cc1ccccc1	inconclusive: 39.8 µM [inhibitor, single point]	–
COc1ccc(C2C3=C(CC(C)(C)CC3=O)Nc3c2c(=O)[nH]c(=O)n3Cc2ccccc2)cc1 (stereo unspecified)	inconclusive: 3.98 µM [inhibitor, single point]	–
CCOc1ccccc1N1CC(O)=C(c2nc3ccccc3s2)C1=N	inconclusive: 39.8 µM [inhibitor, single point]	–
O=C(Cc1ccccc1)Nc1nnc(-c2cccs2)s1	inconclusive: 31.6 µM [inhibitor, single point]	–
COc1ccc(NC2c3ncccc3C(=O)N2Cc2ccccc2)c(OC)c1 (stereo unspecified)	inconclusive: 25.1 µM [inhibitor, partial curve]	–
COc1cccc(NC(=O)Cc2c(O)c3ccccc3[nH]c2=O)c1	inconclusive: 39.8 µM [inhibitor, single point]	–

SMILES	Potency	activity change, negative = inhibition
Cc1ccc(-n2c(C)c3c(C)nnc(C)c3c2C)cc1	inactive	–
N[C@H](CC(=O)O)C(=O)O	inactive	–
Cc1ccc(CN2C(=O)CCC2C(=O)NC(C)C)cc1 (stereo unspecified)	inactive	–
Cc1cccc(Cn2c(N(C)Cc3ccccc3)nc3c2c(=O)[nH]c(=O)n3C)c1	inactive	–
CS(=O)(=O)Nc1cccc(-c2nc(Nc3ccc(F)cc3)c3ccccc3n2)c1	inconclusive: 25.1 µM [inhibitor, single point]	–
CN(C)CCNC(=O)c1ccc2c(c1)N(Cc1ccc(F)cc1)CCS2	inconclusive: 31.6 µM [inhibitor, single point]	–
Cc1cc(N2CCOCC2)nc2cc(O)ccc12	active: 25.1 µM	–
COC(=O)CCC(=O)Nc1ccc(C)cc1OC(=O)CCC(=O)OC	inconclusive: 39.8 µM [inhibitor, single point]	–
Cc1ncc(CO)c2cc(S(=O)(=O)c3ccc(F)cc3)c(=O)oc12	inactive	–
Cc1ccc2cccc(SCC(=O)NCc3ccco3)c2n1	inconclusive: 31.6 µM [inhibitor, single point]	–
CCCC(=O)c1cc(O)c(O)cc1O	active: 1.58 µM	–
COc1ccc(-c2coc3cc(O)ccc3c2=O)cc1	active: 39.8 µM	–
O=C(Sc1nnnn1C1CCCCC1)c1cccs1	inconclusive: 1.26 µM [inhibitor, full curve]	–
COC(=O)c1[nH]c2cccc(OC)c2c1NC(=O)CN1CC2(C)CC1CC(C)(C)C2 (stereo unspecified)	inconclusive: 3.16 µM [inhibitor, single point]	–
COc1ccccc1-c1nnc(NC(=O)C(C)SC2=NCCS2)s1 (stereo unspecified)	inactive	–
O=C(CSc1ccc2c(c1)OCCO2)NCC1CCCO1 (stereo unspecified)	inconclusive: 2 µM [inhibitor, full curve]	–
Cc1cc(C)c(S(=O)(=O)NCc2cn3c(C)csc3n2)cc1C	inactive	–
CCC(OC(=O)CC1Sc2ccccc2NC1=O)C(=O)NCC1CCCO1 (stereo unspecified)	inconclusive: 31.6 µM [inhibitor, single point]	–
Cn1c(/C(C#N)=C(\O)c2ccc(S(=O)(=O)N3CCCCC3)cc2)nc2ccccc21	inconclusive: 5.01 µM [inhibitor, single point]	–
COc1cccc(N2C(=O)C3CC=C(Cl)CC3C2=O)c1 (stereo unspecified)	inconclusive: 25.1 µM [inhibitor, partial curve]	–
Cc1nn(-c2ccccc2)c2nc(N)c(C#N)c(-c3ccc(F)cc3)c12	inconclusive: 39.8 µM [inhibitor, single point]	–
Cc1cccn2c(=O)c3cc(C(=O)NCCCN4CCCC4=O)n(C)c3nc12	active: 31.6 µM	–
Cc1ccc2c(c1)c1ncnc(N3CCOCC3)c1n2C	active: 31.6 µM	–
Cc1ccc(S(=O)(=O)N(CC(=O)O)c2ccc(Cl)cc2)cc1	inactive	–

SMILES	Potency	activity change, negative = inhibition
COc1cc(OC)c2cc(-c3ccncc3)cnc2c1	active: 31.6 µM	–
O=C(O)CCSc1nc2ccccc2s1	inconclusive: 20 µM [inhibitor, single point]	–
O=C(CCN1C(=O)c2ccccc2C1=O)N1CCN(C(=O)c2ccccc2)CC1	inconclusive: 3.16 µM [inhibitor, full curve]	–
c1cncc(-c2nccc(NCc3cccs3)n2)c1	inconclusive: 25.1 µM [inhibitor, partial curve]	–
COC(=O)[C@@]1(Cc2ccc(OC)cc2)[C@H]2c3cc(C(=O)N4CCCC4)n(CCc4ccc(O)c(O)c4)c3C[C@H]2CN1C(=O)c1ccccc1	inconclusive: 6.31 µM [inhibitor, partial curve]	–
O=c1oc(-c2cccs2)nc2sc3c(c12)CCCCC3	inactive	–
COc1cc2nc(N3CCN(C(=O)OCc4ccccc4)[C@H](C(=O)NC(C)(C)C)C3)nc(N)c2cc1OC	inconclusive: 25.1 µM [inhibitor, single point]	–
Cc1cccc(S(=O)(=O)c2c(N)n(/N=C/c3ccco3)c3nc4ccccc4nc23)c1	inconclusive: 31.6 µM [inhibitor, single point]	–
Cc1nnc2sc(-c3cccc(NC(=O)c4cccnc4)c3)nn12	active: 15.8 µM	–
COc1ccc(N2CCN(c3ccc(NC(=O)C4CCCCC4)cc3C#N)CC2)cc1	inconclusive: 31.6 µM [inhibitor, single point]	–
COc1ccc2cc(C(=O)N3CCCCCC3)sc(=O)c2c1OC	inactive	–
COc1ccc(O[C@H]2C=C[C@@H](c3ccccc3)O[C@H]2COC(=O)CC/C(C)=N\O[C@@H](C)c2cc(-c3c(C)cc(C)cc3C)no2)cc1	–	inactive: -4.05% [at 11.4 µM]
CN1CCN(CCCNC(=O)c2ccc3c(c2)N(Cc2ccccc2)CCS3)CC1	inconclusive: 31.6 µM [inhibitor, single point]	–
CCOc1c2c(nc3ccc(Cl)cc13)CCC2	inactive	–
O=C(NCc1ccc(Cl)cc1)c1cc2c(nc3sccn32)s1	inconclusive: 15.8 µM [inhibitor, partial curve]	–
Cc1ccc(NC2=CC(=O)CCC2)cc1C	inactive	–
CCOc1cc(S(=O)(=O)NCCc2ccccc2C)c(OCC)cc1-n1cnnn1	inactive	–
COC(=O)C[C@@H]1O[C@H]1[C@H](C)[C@@H](OC)C(C)C	–	inactive: 2.26% [at 11.4 µM]
CCN1CCN(Cc2ccc(OC)c(OCc3ccccc3)c2)CC1	inconclusive: 7.94 µM [inhibitor, single point]	–
c1coc(Cn2c(SCc3nc4ccccc4[nH]3)nnc2-c2cccs2)c1	inactive	–
O=C(CSc1n[nH]c(-c2ccc(S(=O)(=O)N3CCCCC3)cc2)n1)Nc1nccs1	active: 25.1 µM	–
CCN(CC)CCn1c(-c2ccccc2)nc2c(NCc3ccccc3)nc(C)nc21	inconclusive: 39.8 µM [inhibitor, single point]	–
COc1ccc2c(c1)-c1nc(NC(=O)c3cccs3)sc1CC2	active: 15.8 µM	–
